# Laboratory results from the supplement of paper PMC9446081.
# Among all 39,000 compounds or so, about 220 (0.56%) showed activity. The list shows a part of the results.
# System: Escherichia coli K-12 BW25113
# Assay: relative growth (OD600 normalised to plate interquartile mean) (fraction); higher = less growth inhibition, active = 0.2 or less
# Conditions: 50 µM; LB; incubation time: overnight (16-24 h)
# 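Note: static incubation at 37 °C against the wild-type strain, values averaged over two biological replicates.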
row,Structure (SMILES),relative growth
1,CN(C)C(=O)C[C@@H]1C=C[C@H](NC(=O)C2CCOCC2)[C@@H](CO)O1,inactive: 0.96
2,C[C@H]1CCCCO[C@H](CN(C)S(=O)(=O)c2cn(C)cn2)[C@@H](C)CN([C@@H](C)CO)C(=O)c2cc(NS(C)(=O)=O)ccc2O1,inactive: 0.967
3,C[C@H](CO)N1C[C@H](C)[C@@H](CN(C)S(=O)(=O)c2cccs2)OCCCC[C@H](C)Oc2ccc(NS(=O)(=O)c3ccc(Cl)cc3)cc2C1=O,inactive: 1.1
4,O=C(C[C@H]1C[C@H]2c3cc(NS(=O)(=O)c4ccc(F)cc4)ccc3O[C@H]2[C@H](CO)O1)NCc1ccncc1,inactive: 1
5,CCCNC(=O)N1C[C@H](O)COC[C@@H]2O[C@H](CC(=O)N3CCN(C)CC3)CC[C@H]21,inactive: 0.993
6,C[C@@H]1CCCCO[C@@H](CN(C)S(=O)(=O)c2ccc(Cl)cc2)[C@H](C)CN([C@@H](C)CO)C(=O)c2cc(NC(=O)CCC(F)(F)F)ccc2O1,inactive: 1
7,Cc1onc(-c2c(Cl)cccc2Cl)c1C(=O)NC1C(=O)N2C1SC(C)(C)C2C(=O)[O-].[Na+] (centres undefined),inactive: 0.981
8,CC(=O)N[C@H]1CC[C@H](CCNC(=O)C2CC2)O[C@@H]1CO,inactive: 0.965
9,O=C(O)C[C@H]1CSc2nccc(=O)n21,inactive: 1.01
10,COC(=O)[C@]12CCC(C)(C)C[C@H]1[C@H]1C(=O)C=C3[C@@]4(C)C=C(C#N)C(=O)C(C)(C)[C@@H]4CC[C@@]3(C)[C@]1(C)CC2,inactive: 1.03
11,CC(NCCC(c1ccccc1)c1ccccc1)c1ccccc1.Cl (centres undefined),inactive: 1.11
12,CC(C)NC(=O)Nc1ccc2c(c1)C(=O)N([C@@H](C)CO)C[C@H](C)[C@H](CN(C)Cc1ccccc1)OCCCC[C@@H](C)O2,inactive: 0.983
13,Cc1noc(C)c1S(=O)(=O)Nc1ccc2c(c1)C(=O)N([C@H](C)CO)C[C@H](C)[C@@H](CN(C)Cc1ccccc1)OCCCC[C@@H](C)O2,inactive: 0.986
14,Cc1noc(C)c1NC(=O)Nc1ccc2c(c1)C(=O)N([C@H](C)CO)C[C@H](C)[C@H](CN(C)C(=O)NC1CCCCC1)OCCCC[C@@H](C)O2,inactive: 1.01
15,CO[C@H](CN(C)S(=O)(=O)c1ccc(C)cc1)[C@H](C)CN([C@@H](C)CO)S(=O)(=O)c1cccc(Cl)c1,inactive: 1.01
16,O=Cc1ccc(CO)o1,inactive: 0.988
17,CO[C@H]1CN(C)C(=O)c2cc(NC(=O)C3CCOCC3)ccc2OC[C@@H](C)N(Cc2cccnc2)C[C@@H]1C,inactive: 0.96
18,Cc1noc(C)c1S(=O)(=O)Nc1cccc2c1O[C@H](CN(C)S(=O)(=O)c1c(C)noc1C)[C@H](C)CN([C@@H](C)CO)C2=O,inactive: 1.03
19,COc1ccccc1C#Cc1ccc2c(c1)O[C@H](CN(C)Cc1cncnc1)[C@@H](C)CN([C@@H](C)CO)S2(=O)=O,inactive: 1.05
20,C[C@@H]1CCCCO[C@H](CN(C)C(=O)Nc2ccccc2)[C@H](C)CN([C@@H](C)CO)C(=O)c2cc(NC(=O)Nc3ccc4c(c3)OCO4)ccc2O1,inactive: 1.02

row,Structure (SMILES),relative growth
1,C[C@H](CO)N1C[C@H](C)[C@@H](CN(C)C(=O)Nc2ccc(F)cc2)OCCCC[C@H](C)Oc2ccc(NC(=O)Nc3ccccc3)cc2C1=O,inactive: 1.01
2,Cc1noc(C)c1NC(=O)Nc1ccc2c(c1)C(=O)N([C@@H](C)CO)C[C@@H](C)[C@H](CN(C)Cc1ccc(Cl)c(Cl)c1)OCCCC[C@@H](C)O2,inactive: 1.07
3,COc1ccc(S(=O)(=O)Nc2ccc3c(c2)C(=O)N([C@H](C)CO)C[C@H](C)[C@H](CN(C)S(=O)(=O)c2ccccc2)O3)cc1,inactive: 1.02
4,C[C@@H]1CN([C@@H](C)CO)C(=O)c2cccc(NC(=O)NC3CCCCC3)c2O[C@H]1CN(C)Cc1ccc(Oc2ccccc2)cc1,inactive: 1.01
5,COc1cc(/C=C/C(=O)c2c(NCCc3ccccc3)sc(-c3ccc(O)c(OC)c3)cc2=O)ccc1O,inactive: 1
6,COc1ccc(NC(=O)N(C)C[C@@H]2Oc3ccc(NC(=O)CCN4CCOCC4)cc3C(=O)N([C@@H](C)CO)C[C@@H]2C)cc1,inactive: 0.984
7,COc1ccc(NC(=O)Nc2ccc3c(c2)C(=O)N([C@H](C)CO)C[C@@H](C)[C@H](CN(C)CC2CC2)OCCCC[C@@H](C)O3)cc1,inactive: 0.979
8,C[C@H](CO)N1C[C@H](C)[C@@H](CN(C)S(C)(=O)=O)Oc2ccc(NC(=O)CCN3CCOCC3)cc2CC1=O,inactive: 0.942
9,C[C@@H]1CN([C@@H](C)CO)C(=O)c2cccc(NC(=O)Nc3ccc4c(c3)OCO4)c2O[C@H]1CN(C)Cc1ccc(C(F)(F)F)cc1,inactive: 0.87
10,COC(=O)CCCCCCC(=O)Nc1ccc([C@H]2O[C@@H](CN(C)Cc3ccccc3)C[C@H](c3ccccc3)O2)cc1,inactive: 0.996
11,C[C@@H]1CN([C@H](C)CO)C(=O)c2cc(NC(=O)Nc3cccc4ccccc34)ccc2O[C@@H](C)CCCCO[C@@H]1CN(C)CC1CCCCC1,inactive: 1.01
12,C[C@@H]1CCCCO[C@@H](CN(C)C(=O)CCC(F)(F)F)[C@@H](C)CN([C@H](C)CO)C(=O)c2cc(NS(=O)(=O)c3ccccc3)ccc2O1,inactive: 0.997
13,C[C@@H]1CN([C@@H](C)CO)C(=O)c2cc(NC(=O)Nc3ccc4c(c3)OCO4)ccc2O[C@H]1CN(C)Cc1ccc(Cl)c(Cl)c1,inactive: 1.04
14,C[C@H]1CN([C@@H](C)CO)C(=O)CCCn2nncc2CO[C@H]1CN(C)C(=O)c1cc(-c2ccccc2)on1,inactive: 0.993
15,O=C(C[C@H]1CC[C@H](NS(=O)(=O)c2ccc(F)cc2)[C@@H](CO)O1)NCc1ccc(Cl)c(Cl)c1,inactive: 1
16,C[C@H]1CN([C@@H](C)CO)S(=O)(=O)c2ccc(C#CCN(C)C)cc2O[C@@H]1CN(C)S(C)(=O)=O,inactive: 0.994
17,Cc1ccc(S(=O)(=O)Nc2ccc3c(c2)CC(=O)N([C@H](C)CO)C[C@H](C)[C@H](CN(C)S(=O)(=O)c2c(C)noc2C)O3)cc1,inactive: 0.99
18,COc1ccc(-c2cnc3c(c2)C(=O)N([C@H](C)CO)C[C@@H](C)[C@H](CN(C)C(=O)Cc2cccnc2)O3)cc1,inactive: 0.994
19,C[C@@H]1CN([C@H](C)CO)C(=O)Cc2cc(NC(=O)Nc3ccc(F)cc3)ccc2O[C@H]1CN(C)C(=O)Nc1cccc2ccccc12,inactive: 1.02
20,C[C@H]1CN([C@@H](C)CO)S(=O)(=O)c2ccc(-c3cncnc3)cc2O[C@H]1CN(C)C(=O)NC1CCCC1,inactive: 1

row,Structure (SMILES),relative growth
1,Cc1ccc(S(=O)(=O)N(C)C[C@@H]2OCCCC[C@H](C)Oc3ccc(NC(=O)Nc4ccc5c(c4)OCO5)cc3C(=O)N([C@@H](C)CO)C[C@H]2C)cc1,inactive: 1.03
2,CN(C)CC(=O)N1[C@@H]2Cn3c(ccc(-c4ccccc4)c3=O)[C@H]1[C@@H](C(=O)N1CCOCC1)[C@@H]2CO,inactive: 0.933
3,C[C@@H]1CN([C@H](C)CO)C(=O)c2cccc(NC(=O)Nc3cccc4ccccc34)c2O[C@H]1CN(C)C(=O)Nc1ccc(C(F)(F)F)cc1,inactive: 0.865
4,COc1ccc(CN(C)C[C@H]2OCCCC[C@H](C)Oc3ccc(NC(=O)Nc4ccc(C(F)(F)F)cc4)cc3C(=O)N([C@H](C)CO)C[C@@H]2C)cc1,inactive: 0.995
5,C[C@@H]1CN([C@H](C)CO)S(=O)(=O)c2ccc(-c3cccnc3)cc2O[C@@H]1CN(C)C(=O)c1ccc2c(c1)OCO2,inactive: 1.01
6,Cc1noc(C)c1S(=O)(=O)Nc1ccc2c(c1)CC(=O)N([C@H](C)CO)C[C@H](C)[C@@H](CN(C)CC1CC1)O2,inactive: 1.01
7,Cn1cnc(S(=O)(=O)N2C[C@H](O)COC[C@H]3O[C@H](CC(=O)NCc4cccc(F)c4)CC[C@@H]32)c1,inactive: 0.998
8,Cc1cn([C@@H]2O[C@H](CO)[C@@H](O)[C@H]2O)c(=O)nc1N,inactive: 1
9,C[C@@H]1CCCCO[C@@H](CN(C)C(=O)Nc2ccccc2)[C@H](C)CN([C@@H](C)CO)C(=O)c2cc(NS(=O)(=O)c3ccc(F)cc3)ccc2O1,inactive: 1.05
10,c1cnc(-c2cc[nH]n2)cn1,inactive: 0.982
11,CNC[C@H]1OCCCC[C@H](C)Oc2ccc(NC(=O)Nc3cccc4ccccc34)cc2C(=O)N([C@H](C)CO)C[C@@H]1C,inactive: 1
12,C[C@@H]1CCCCO[C@@H](CN(C)C(=O)c2ccncc2)[C@H](C)CN([C@@H](C)CO)C(=O)c2cc(NC(=O)C3CCCCC3)ccc2O1,inactive: 1
13,C[C@H](CO)N1C[C@H](C)[C@H](CN(C)Cc2ccc3c(c2)OCO3)Oc2ccc(NC(=O)Nc3cccc4ccccc34)cc2C1=O,inactive: 1.03
14,COc1ccc(CN(C)C[C@@H]2OCCCC[C@@H](C)Oc3ccc(NS(=O)(=O)c4ccc(F)cc4)cc3C(=O)N([C@H](C)CO)C[C@@H]2C)cc1,inactive: 1.01
15,CSCCC(N)C(=O)O (centres undefined),inactive: 1.11
16,C[C@H]1CN([C@@H](C)CO)C(=O)c2cccc(NC(=O)C3CC3)c2O[C@H]1CN(C)Cc1ccc(C(=O)O)cc1,inactive: 0.992
17,COc1ccc([Si](C)(C)[C@@H]2[C@@H](CC(=O)N(CCO)Cc3ccccc3)O[C@]3(C(=O)N(C)c4c(Br)cc(C)cc43)[C@H]2C)cc1,inactive: 1.05
18,C[C@H](CO)N1C[C@H](C)[C@@H](CN(C)C)Oc2ccc(NC(=O)Cc3cn(C)c4ccccc34)cc2CC1=O,inactive: 0.951
19,C[C@@H]1CCCCO[C@H](CN(C)C(=O)c2ccncc2)[C@@H](C)CN([C@H](C)CO)C(=O)c2cc(NS(C)(=O)=O)ccc2O1,inactive: 0.986
